Publication PMC4336329 (PLoS ONE, 2015)
Out of some 310,000 compounds screened, about 2,200 (0.71%) showed an effect of 50% or more. Effects have a minus sign here. The list shows a part of the results.

The compounds below were run against human ether-à-go-go-related gene (hERG) potassium channel (human, UniProt Q12809) (assay: primary screen, population patch clamp on CHO cells stably expressing hERG).
Chain of human ether-à-go-go-related gene (hERG) potassium channel (Q12809 whole entry, looked up): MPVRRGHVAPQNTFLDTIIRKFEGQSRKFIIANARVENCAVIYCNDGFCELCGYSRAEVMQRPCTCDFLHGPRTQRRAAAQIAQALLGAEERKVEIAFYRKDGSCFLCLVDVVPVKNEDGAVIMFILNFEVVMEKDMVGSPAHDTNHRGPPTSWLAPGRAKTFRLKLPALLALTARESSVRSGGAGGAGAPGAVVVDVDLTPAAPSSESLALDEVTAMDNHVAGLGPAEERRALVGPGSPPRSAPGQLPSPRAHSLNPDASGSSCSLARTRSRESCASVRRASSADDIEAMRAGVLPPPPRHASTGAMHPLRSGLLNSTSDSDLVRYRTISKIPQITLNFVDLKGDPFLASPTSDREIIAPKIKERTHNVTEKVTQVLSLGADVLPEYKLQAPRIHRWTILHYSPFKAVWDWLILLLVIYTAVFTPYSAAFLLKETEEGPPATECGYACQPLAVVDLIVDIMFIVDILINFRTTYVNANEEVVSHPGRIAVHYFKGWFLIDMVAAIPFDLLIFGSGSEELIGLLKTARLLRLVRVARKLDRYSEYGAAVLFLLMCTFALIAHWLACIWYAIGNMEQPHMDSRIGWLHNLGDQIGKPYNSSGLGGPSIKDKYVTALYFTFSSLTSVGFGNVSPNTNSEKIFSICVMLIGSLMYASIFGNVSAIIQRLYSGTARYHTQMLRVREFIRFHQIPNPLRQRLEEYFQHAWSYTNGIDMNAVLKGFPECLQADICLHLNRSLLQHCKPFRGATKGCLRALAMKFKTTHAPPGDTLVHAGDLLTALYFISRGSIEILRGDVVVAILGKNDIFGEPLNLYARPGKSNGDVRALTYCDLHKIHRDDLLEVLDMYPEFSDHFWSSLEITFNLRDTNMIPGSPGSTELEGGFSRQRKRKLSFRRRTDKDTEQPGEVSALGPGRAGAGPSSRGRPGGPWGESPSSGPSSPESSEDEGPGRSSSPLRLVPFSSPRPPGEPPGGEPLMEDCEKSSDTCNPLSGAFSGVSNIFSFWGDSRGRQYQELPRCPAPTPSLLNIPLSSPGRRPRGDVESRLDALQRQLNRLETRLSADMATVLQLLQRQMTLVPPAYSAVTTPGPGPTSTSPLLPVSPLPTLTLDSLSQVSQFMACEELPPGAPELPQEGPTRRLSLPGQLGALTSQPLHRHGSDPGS

Compound	hERG current change (%, negative = inhibition) at 1uM [%]
O=C(Cc1cccc(F)c1)N1CCCC(CO)(Cc2ccc(F)cc2F)C1 (centres unmarked)	5.09
Cc1cccc(C(C)(C)C)c1OCCCCN1CCCC1.O=C(O)C(=O)O	-4.63
CC(=O)N1CC(C)Sc2ccc(S(=O)(=O)NCc3ccc(F)cc3)cc21 (centres unmarked)	-12.2
CSC(=O)NC12CC3CC(CC(C)(C3)C1)C2	3.68
COc1ccc2c(=O)cc(-c3ccccc3F)oc2c1	15.6
CC(=O)c1cccc(NC(=O)CN2C(=O)C3C4C=CC(C4)C3C2=O)c1 (centres unmarked)	11.2
COc1ccc(-c2[nH]ncc2N=Nc2ccccc2)cc1	15.7
COc1ccccc1OCC(=O)OCC(=O)Nc1ncc(Cl)cc1Cl	11.6
Nc1ccc2oc(C3CCCCC3)nc2c1	12.3
COc1ccc(N2CCN(C3=CC(=O)N(c4cccc(Cl)c4)C3=O)CC2)cc1	9.07
COc1ccc(C)cc1NC(=O)c1cccc(-c2ccc(OC(C)=O)cc2)c1	8.92
COC(=O)C(=NNc1c(C)n(C)n(-c2ccccc2)c1=O)C(=O)OC	15.4
CCc1nc(SCC(=O)N2CC(=O)Nc3ccccc32)c2c(C)c(C)sc2n1	14.8
CCOC(=O)CCc1c(C)nc2cc(-c3ccccc3OC)[nH]n2c1=O	13.9
Cc1cc(N=CC2=C(O)CC(C)(C)CC2=O)no1	-13.5
O=C(O)CC(Cc1ccccc1)C(=O)NCC12CC3CC(CC(C3)C1)C2 (centres unmarked)	9.06
COc1cc(OC)c(C(=O)Nc2cccc(C(C)=O)c2)cc1OC	0.251
CC(C)CC1C(C#N)=C(N)Oc2c1c(=O)oc1ccccc21 (centres unmarked)	7.62
CC12CC(NC(=O)N1c1cccc(C(=O)NCc3ccc4c(c3)OCO4)c1)c1cc(Cl)ccc1O2 (centres unmarked)	-0.803
O=C(NCCC1=CCCCC1)c1ccc([N+](=O)[O-])cc1	5.61
Cc1ccc(S(=O)(=O)NNC(=O)c2cccnc2)cc1	14.1
COC(=O)c1c(C)oc2c1cc(NS(=O)(=O)c1ccc(C(=O)O)cc1)c1ccccc12	6.04
O=C(COc1ccc(Cl)cc1)Nc1ccc(Cl)cn1	-2

Compound	hERG current change (%, negative = inhibition) at 1uM [%]
O=C(CSc1nc2ncccc2[nH]1)c1ccc(F)cc1	2.83
O=C(c1cc(=O)c2ccccc2o1)N1CCN(c2ccccc2F)CC1	9.26
COc1ccc(COC(=O)c2cccc(S(=O)(=O)N3CCCC3)c2)cc1F	-0.27
C=C1SC(=Nc2c(C)cccc2Cl)N(C(=O)c2sc3ccccc3c2Cl)C12CCCCC2	14.8
Cc1ccc2nc(SCC(=O)c3c(C)[nH]c4ccccc34)[nH]c2c1	17.4
COc1ccc(S(=O)(=O)Cc2ccc(C(=O)NCCc3ccc(S(N)(=O)=O)cc3)o2)cc1	12.1
COc1ccc(CCC(=O)NCc2ccccc2Cl)cc1OC	11.5
Cc1cc(C)cc(N(CC(=O)NC2CCC(C)CC2)S(=O)(=O)c2c(C)[nH]c(=O)[nH]c2=O)c1 (centres unmarked)	5.29
COC(=O)/C=C1\NCCNC1=O	8.32
Cc1ccc(-c2nn(CCC(N)=O)c(=O)c3ccccc23)cc1	-1.18
CC(Oc1ccccc1)C(=O)N=Nc1c(O)[nH]c2ccc(Br)cc12 (centres unmarked)	16.9
CC1(C)CC(=O)c2cc(OCC(=O)N3CCCCCC3)ccc2O1	-11
Cc1ccc(OC(=O)c2cccnc2)cc1	20.1
CCOC(=O)c1cccc(NC(=O)CSc2nnc(C3CCCCC3)n2CC)c1	5.81
Cl.OC(C#CCN1CCOCC1)(c1ccccc1)C1CCCC1 (centres unmarked)	17
O=C(CC1C(=O)NCCN1Cc1ccc(F)c(F)c1)NCCCn1ccnc1 (centres unmarked)	6.44
CC(C)(C)S(=O)(=O)c1nc2ccccc2s1	10.3
CCOCCCNC(=S)Nc1ccc2nc(N3CCN(CC)CC3)cc(C)c2c1	10.7
O=C(COc1cc(F)ccc1[N+](=O)[O-])NCCCc1ccccc1	3.23
Cc1ccc(NC(=O)CSCC(=O)NCc2cccc(C(F)(F)F)c2)cc1	6.6
COc1cc(CC(NC(C)=O)C(=O)NC2CCN(C(=O)c3ccc(C)cc3)CC2)cc(OC)c1 (centres unmarked)	7.73
CCOc1ccc(N(CC(=O)NCCC2=CCCCC2)S(=O)(=O)c2ccccc2)cc1	19
CCOC(=O)c1cc(-c2ccccc2C)n(Cc2cc(C)no2)n1	5.9

Compound	hERG current change (%, negative = inhibition) at 1uM [%]
CSc1nnc(NC(=O)c2ccc(C)c(S(=O)(=O)N3CCOCC3)c2)s1	3.61
Cc1ccsc1/C=N/NC(=O)c1nnn(-c2nonc2N)c1C(C)C	23.9
CC(=O)N(CCCN(C)C)c1nc2ccc(C)cc2s1.Cl	-8.07
CCOC(=O)N1CCN(c2c(-c3ccccc3)c3cc(Cl)ccc3[nH]c2=O)CC1	1.95
Cc1ccc(NC(=O)NC2CCCCCCC2)cc1	15
CC(Oc1ccccc1)C(=O)Nc1cccc(NC(=O)c2ccco2)c1 (centres unmarked)	3.33
CC1CC(C)CN(S(=O)(=O)N2CCCC(C(=O)NCCc3ccc(Cl)cc3)C2)C1 (centres unmarked)	13.1
Nc1cnccc1C(=O)O	18.9
CC(C)Cc1nnc(NS(=O)(=O)c2ccc(Cl)cc2)s1	12.6
CN(C(=O)c1cccnc1)c1nnc(-c2cccnc2)s1	9.58
CC(/C=N/n1cnnc1)=C\c1ccco1	-16.3
CCCn1nnnc1NCc1ccccc1C	16.9
CCOC(=O)C(C)n1ncn2cccc2c1=O (centres unmarked)	10.7
NC(=O)C1(N2CCCCC2)CCN(Cc2nc3ccccc3c(=O)[nH]2)CC1	9.71
O=C(NCc1ccc2c(c1)OCO2)c1ccc(Cl)nc1	-3.46
CC(C)Cn1c(N)c(C(=O)COC(=O)c2ccc([N+](=O)[O-])o2)c(=O)n(C)c1=O	-31
CCOC(=O)CN1C(=O)C(O)=C(C(C)=O)C1c1ccccc1 (centres unmarked)	4.4
Cc1ccc(NCc2cccnc2)cc1	10.7
Cc1ccn2c(C(=O)NN=C3CCCCCCC3)c(C)nc2c1	11.3
Cc1nc(CCNC(=O)C2CCC(=O)N(Cc3cccc(F)c3)C2)sc1C (centres unmarked)	2.82
Cc1ccsc1/C=C1/SC(=O)N(CC(=O)N2CCCC2)C1=O	5.75
CC1CCC/C(=N\NC(=O)COc2ccc(Cl)cc2Cl)C1 (centres unmarked)	-7.94
Cc1ccc(OCC(=O)N/N=C2\CCOc3c(C)cccc32)cc1	6.68

Compound	hERG current change (%, negative = inhibition) at 1uM [%]
CN(CCC#N)C(=O)COC(=O)c1c2c(nc3ccccc13)/C(=C/c1ccco1)CC2	7.61
O=C(O)C1CCCN1c1ncnc2c1oc1ccccc12 (centres unmarked)	7.86
CC(C)C(NC(=O)c1ccccc1F)C(=O)Nc1ccc2c(c1)OCO2 (centres unmarked)	6.37
CC(C)Oc1ccc(CCNC(=O)CC2C(=O)NCCN2C)cc1 (centres unmarked)	7.15
O=C(NNC(=O)c1nn(-c2ccc(F)cc2)ccc1=O)c1ccccc1Cl	9.2
Cc1cnc(NC(=O)CSC(=S)N2CCOCC2)s1	20.3
Cc1cccc(-n2ccc(=O)c(C(=O)Nc3ccc(S(=O)(=O)Nc4onc(C)c4C)cc3)n2)c1	11.6
CNc1sc(C(=O)c2cccs2)c(N)c1-c1nc2ccccc2s1	14.7
COc1ccc(N2C(=O)c3ccc(NC(C)=O)cc3C2=O)cc1	16.6
COC(=O)c1sccc1NC(=S)Nc1ccc(F)cc1F	7.43
COc1ccc(C(=O)C2CCCN(C(=O)Cn3nc(C)cc3C)C2)cc1F (centres unmarked)	1.2
O=C(Nn1c(-c2ccc(Cl)cc2)nc2ccccc2c1=O)c1cccnc1Cl	1.03
COc1ccccc1Nc1ccc(N)cc1	6.04
CCC(=O)NCCc1nc2cc(NC(=O)c3ccccc3Cl)ccc2n1C	8.46
Cc1ccc[n+](CC(=O)c2ccc(NC(=O)c3ccccc3)cc2)c1.[Br-]	16.4
COc1cc(Nc2nc(SCC#N)nc3ccccc23)cc(OC)c1OC	-10
COCCC(=O)N1CCC(Oc2ccc(C(=O)NC3CCOC(C)(C)C3)cc2)CC1 (centres unmarked)	20
CCOC(=O)c1sc(NC(=O)CC)c(C#N)c1C	14.8
COc1ccc(CN(CCCN2CCOCC2)C(=O)Nc2cccc(Cl)c2)cc1OC	-3.99
CC(C)NCC(O)c1ccc(C2CCCC2)cc1.O=C(O)/C=C\C(=O)O (centres unmarked)	7.02
c1ccc(CSc2ncccn2)cc1	13.5
O=C(O)CCSc1ncnc2sc(-c3ccccc3)cc12	7.1
CCn1c(N2CCN(C(=O)NC3CCCCC3)CC2)nc2ccccc21	-9.49
